Assay results reported in the supplement of paper PMC3334620.
The full ranking holds about 33,000 sequences; the median of “E-score (-0.5 to 0.5)” is about -0.056, and the highest 2% start at about 0.38. The list shows a part of the results.

The sequences below were run against Stb4 (UniProt P50104) (assay: PBM E-score (8-mer binding enrichment) (E-score (-0.5 to 0.5)); higher = stronger / more preferred TF binding; most listed sequences are background and not binding sites). Conditions: protein concentration: 200 nM; construct: GST-DNA-binding domain.
Summary of the method: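 GST-tagged yeast TFs (full-length or DNA-binding domain) were made by PURExpress in vitro transcription/translation and applied at about 100-200 nM to universal all-10-mer Agilent arrays. The arrays were made double-stranded by primer extension, on fresh or once-stripped slides. Bound protein was detected with fluorescent anti-GST, and scans were normalised with masliner. Each ungapped eight-base word, pooled with its reverse complement, received an E-score (modified Wilcoxon-Mann-Whitney statistic) from the Universal PBM Analysis Suite.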
With ACTCGTTG the “PBM E-score” value was -0.283.
In the case of GAAATCGA, the “PBM E-score” value is reported as 0.1.
CCCTTCGA was tested, and the “PBM E-score” value was -0.0805.
With TTAAGAAA the “PBM E-score” value was -0.226.
For AAAAATAA, the “PBM E-score” value was 0.029.
With CCCGGTCC the “PBM E-score” value was 0.289.
In the case of CACGTGGG, the “PBM E-score” value is reported as -0.335.
AGAAAATA was tested, and the “PBM E-score” value was 0.0963.
GCTCAAGC was tested, and the “PBM E-score” value was -0.293.
For GGCCCATA, the “PBM E-score” value was -0.0435.
In the case of GGACGCTA, the “PBM E-score” value is reported as -0.0466.
AAGCTTGC was tested, and the “PBM E-score” value was -0.209.
In the case of ACCGCGAC, the “PBM E-score” value is reported as -0.00545.
With CCGTAGAA the “PBM E-score” value was 0.018.
AGGTAGAG was tested, and the “PBM E-score” value was -0.197.
CGGCAGTA was tested, and the “PBM E-score” value was 0.3.
In the case of ACAGCGAC, the “PBM E-score” value is reported as -0.325.
ATTCCCGG was tested, and the “PBM E-score” value was 0.372.
For AGAGAACC, the “PBM E-score” value was -0.105.
With ACTTGGGC the “PBM E-score” value was -0.0574.
In the case of CCTAAGAG, the “PBM E-score” value is reported as -0.194.
In the case of TGGCCCCA, the “PBM E-score” value is reported as -0.198.
ACCTGCCT was tested, and the “PBM E-score” value was -0.0436.
ATACGGAA was tested, and the “PBM E-score” value was 0.36.
With CTAGATAG the “PBM E-score” value was -0.257.
For AGTCACGC, the “PBM E-score” value was -0.162.
In the case of CCGATCGA, the “PBM E-score” value is reported as 0.244.
In the case of GATAGAAA, the “PBM E-score” value is reported as -0.026.
For TCCCAGGA, the “PBM E-score” value was -0.284.
GAATTCCA was tested, and the “PBM E-score” value was 0.125.
In the case of AAATCTTC, the “PBM E-score” value is reported as 0.1.
For AGGCAGAG, the “PBM E-score” value was -0.295.
For GGTGGTCA, the “PBM E-score” value was 0.0759.
With ACTCCACC the “PBM E-score” value was -0.177.
With ATCTTTTC the “PBM E-score” value was -0.0605.
For TGTGGAAA, the “PBM E-score” value was -0.0202.
AACTATTC was tested, and the “PBM E-score” value was 0.0635.
For AGAGAACA, the “PBM E-score” value was -0.00898.
ACATAGCC was tested, and the “PBM E-score” value was 0.0789.
With CCCGCTGA the “PBM E-score” value was 0.0217.
ATTCCCGC was tested, and the “PBM E-score” value was 0.295.
With CCCTATTC the “PBM E-score” value was 0.144.
For AGGAGCCG, the “PBM E-score” value was 0.219.
In the case of CACATTCC, the “PBM E-score” value is reported as 0.147.
With CCCATAGG the “PBM E-score” value was -0.153.
GTATCAAA was tested, and the “PBM E-score” value was -0.15.
For CCTTGGCA, the “PBM E-score” value was -0.295.
With ACGGTTGC the “PBM E-score” value was -0.0857.
For GTTATCGA, the “PBM E-score” value was 0.131.
With ACTTAAAA the “PBM E-score” value was 0.0509.
For ATGCGCGC, the “PBM E-score” value was 0.104.
For CGGCTATC, the “PBM E-score” value was 0.368.
In the case of CTGGCCAA, the “PBM E-score” value is reported as -0.0932.
AAGGGGCC was tested, and the “PBM E-score” value was -0.0705.
CACCTCGC was tested, and the “PBM E-score” value was 0.0165.
AGTTATTG was tested, and the “PBM E-score” value was -0.173.
For CAAGCGTA, the “PBM E-score” value was -0.284.
For CCCTGCAA, the “PBM E-score” value was -0.122.
With CTTAACAC the “PBM E-score” value was -0.217.
AAGCCCTA was tested, and the “PBM E-score” value was -0.135.
With ACGGGAGT the “PBM E-score” value was 0.225.
For TCCACACA, the “PBM E-score” value was -0.0692.
For AGATCGAC, the “PBM E-score” value was -0.0199.
In the case of AAATTCGA, the “PBM E-score” value is reported as -0.136.
With GGCATTGA the “PBM E-score” value was 0.0593.
For GCCAAGGC, the “PBM E-score” value was -0.305.
With CAGTGTCG the “PBM E-score” value was 0.0321.
With CTAAAAAG the “PBM E-score” value was -0.0967.
With ATGCACTG the “PBM E-score” value was -0.144.
In the case of AATATTTA, the “PBM E-score” value is reported as 0.0278.
For AGTTACAG, the “PBM E-score” value was -0.235.
In the case of ACACGGTC, the “PBM E-score” value is reported as -0.034.
In the case of CACGATAG, the “PBM E-score” value is reported as -0.157.
With CCAAATGA the “PBM E-score” value was -0.0861.
In the case of AGCGGAAT, the “PBM E-score” value is reported as 0.141.
CGAACGCC was tested, and the “PBM E-score” value was 0.0631.
In the case of GATCATTA, the “PBM E-score” value is reported as 0.102.
For GCAGTCAA, the “PBM E-score” value was -0.207.
In the case of AGCTGGGC, the “PBM E-score” value is reported as -0.153.
For GTCGTAAA, the “PBM E-score” value was 0.0948.
AAAGTGTG was tested, and the “PBM E-score” value was -0.194.
For AAAACTCC, the “PBM E-score” value was 0.088.
In the case of CCAACACC, the “PBM E-score” value is reported as -0.0103.
In the case of ACCAAAGA, the “PBM E-score” value is reported as -0.00898.
TAGCAATA was tested, and the “PBM E-score” value was -0.0964.
For ATTGGGAG, the “PBM E-score” value was -0.108.
With CACTACTC the “PBM E-score” value was 0.0355.
In the case of AGAACAAT, the “PBM E-score” value is reported as 0.0308.
For CGTATAGC, the “PBM E-score” value was 0.0237.
ATCGGATC was tested, and the “PBM E-score” value was 0.43.
In the case of AGGCGTTA, the “PBM E-score” value is reported as -0.0936.
In the case of CAATCCAA, the “PBM E-score” value is reported as -0.242.
With ACGTGTAC the “PBM E-score” value was -0.186.
For AGTATAAT, the “PBM E-score” value was 0.0745.
For CTCGCCGA, the “PBM E-score” value was 0.271.
With TACTACCA the “PBM E-score” value was -0.107.
For CAAAGATA, the “PBM E-score” value was -0.111.
CGTCCAGA was tested, and the “PBM E-score” value was -0.113.
For GCATATCC, the “PBM E-score” value was 0.101.
In the case of CCGGACAC, the “PBM E-score” value is reported as 0.193.
For ATCTTGCA, the “PBM E-score” value was -0.048.
GAAGCACC was tested, and the “PBM E-score” value was -0.0377.
With CCGTGCAG the “PBM E-score” value was 0.117.
GACTACTC was tested, and the “PBM E-score” value was 0.0421.
AGATACTG was tested, and the “PBM E-score” value was -0.169.
In the case of ACTCTCAC, the “PBM E-score” value is reported as -0.168.
For CATAATAA, the “PBM E-score” value was -0.101.
For AATTGCGT, the “PBM E-score” value was 0.153.
With AATATTGC the “PBM E-score” value was 0.166.
With CCTGAATA the “PBM E-score” value was -0.107.
CACACAGC was tested, and the “PBM E-score” value was -0.102.
AGCGCTCA was tested, and the “PBM E-score” value was -0.191.
CCTTGTCA was tested, and the “PBM E-score” value was -0.291.
With AAATGTGA the “PBM E-score” value was -0.175.
With AATGACGA the “PBM E-score” value was -0.113.
With GAACGCGA the “PBM E-score” value was -0.0119.
For CGAATTCG, the “PBM E-score” value was 0.203.
For ATATGTAC, the “PBM E-score” value was -0.0125.
CGCGCACC was tested, and the “PBM E-score” value was -0.0167.
AGAGCAGA was tested, and the “PBM E-score” value was -0.159.
With ACCGTATA the “PBM E-score” value was -0.145.
For CAGAGGCA, the “PBM E-score” value was -0.134.
AGACGGAT was tested, and the “PBM E-score” value was 0.29.
In the case of AAGCCGCT, the “PBM E-score” value is reported as -0.00212.
In the case of ATAGAAAA, the “PBM E-score” value is reported as -0.156.
With GTAATTAA the “PBM E-score” value was -0.0124.
In the case of CTAACGTA, the “PBM E-score” value is reported as -0.201.
GGTATCTA was tested, and the “PBM E-score” value was 0.129.
With AGAGTGAC the “PBM E-score” value was -0.115.
In the case of TCATATGA, the “PBM E-score” value is reported as 0.0352.
ACGCTCTC was tested, and the “PBM E-score” value was -0.119.
In the case of GATATAAA, the “PBM E-score” value is reported as -0.00092.
GATTATGC was tested, and the “PBM E-score” value was 0.253.
For ACGGCAAC, the “PBM E-score” value was 0.204.
In the case of AAGAACCT, the “PBM E-score” value is reported as -0.0619.
With CCCGAGCG the “PBM E-score” value was 0.43.
In the case of CCTAATGA, the “PBM E-score” value is reported as -0.159.
In the case of CTATGTCA, the “PBM E-score” value is reported as -0.177.
ACTATTGG was tested, and the “PBM E-score” value was -0.123.
For CGTTGAGA, the “PBM E-score” value was -0.133.
For AGGCTTTC, the “PBM E-score” value was -0.123.
ACAACTTG was tested, and the “PBM E-score” value was -0.261.
In the case of ACCCTTGC, the “PBM E-score” value is reported as -0.114.
ACACCACA was tested, and the “PBM E-score” value was -0.0857.
In the case of CAGGTCAG, the “PBM E-score” value is reported as 0.00829.
In the case of GCAGGTCA, the “PBM E-score” value is reported as -0.0711.
For AACCGGGT, the “PBM E-score” value was 0.339.
With ACACAGAA the “PBM E-score” value was -0.117.
GGAAACGA was tested, and the “PBM E-score” value was 0.0279.
For AAGCAGCC, the “PBM E-score” value was 0.0101.
For AGAATTAA, the “PBM E-score” value was -0.00134.
In the case of TCCGCCGA, the “PBM E-score” value is reported as 0.403.
With AATGCCAT the “PBM E-score” value was -0.0911.
With AACCGGTT the “PBM E-score” value was 0.305.
In the case of AACAGAAC, the “PBM E-score” value is reported as -0.138.
In the case of CACCTTAC, the “PBM E-score” value is reported as -0.213.
TAGAAGGA was tested, and the “PBM E-score” value was -0.136.
For AGGCTCTG, the “PBM E-score” value was -0.392.
With ACACATGA the “PBM E-score” value was -0.315.
With ATAGCGTG the “PBM E-score” value was -0.0897.
For ATTGATTC, the “PBM E-score” value was 0.126.
In the case of AGGATAGC, the “PBM E-score” value is reported as 0.206.
TCAACTGA was tested, and the “PBM E-score” value was -0.12.
In the case of AAATGGTG, the “PBM E-score” value is reported as -0.00049.
In the case of ACCGTCTG, the “PBM E-score” value is reported as -0.153.
In the case of TATCCAGA, the “PBM E-score” value is reported as -0.00856.
CCGGGCCG was tested, and the “PBM E-score” value was 0.382.
ACTGTATC was tested, and the “PBM E-score” value was -0.198.
With AACGCACC the “PBM E-score” value was -0.0468.
For ATACAGTC, the “PBM E-score” value was -0.205.
For GGAAATAA, the “PBM E-score” value was 0.226.
With AAAAGGGG the “PBM E-score” value was -0.145.
